# Experimental data: the supplement of paper PMC8728848
# Some of the results follow.
# B1: GS13846A-bth-444-19-444 (Bacteroides thetaiotaomicron) (protein)
# chain: SCENEFDVSDKADSLISVTVNTLNNQAAYNVGETAQAELWIQRGGLKDASGKVQFVVDPLLLDSLNQEDKTNYELLPENCYEMTNTEFTVDKNELCGYITYHPEKILALSAYNETKYVLPLRLISNDLAINPARNTSFLAFTILEPIVHISNAGVYNINPDLTSTMDIQIGVPFTNKWDILCNLTEDLSLIDEYNQINKVNFTLLPENAYTAPESVTLQEGVSQITASYQLKNNLVPGNYILPIKIGSITASQGGVPNNSLVIDEESNVLFCIVKEGNKINKSGWEVIECSSEHAGNEATYMIDDNESTYWHCKFKNEAGSSVPPFHFIIDMKKEITIAQIDLLNRGDGAANNIKWVEFYASNNNSEWDKIGAGDFNDEGTRATFRYYVKSTKARYLKLIIPEGYGNNCPPAAIRELTVYGLEGNN
# Experiments:
# Assay in all cases: glycan array binding signal (z-score within array); higher = stronger binding
# Settings in all cases: glycan notation: IUPAC condensed, linker removed
# GalNAc(b1-3)Gal = target: GalNAc(b1-3)Gal
# Summary of the method: (§1)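 Glycan array binding is given as a within-array Z-score, which can be read as non-binding when negative. The arrays, 3228 of them, came from the Consortium for Functional Glycomics database and were retained only where the protein sequence was available. Z-scores were averaged across arrays of the same protein sequence at different concentrations or buffers and across linkers.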
# [1] = target: GalNAc(b1-3)Gal(a1-4)Gal(b1-4)GlcNAc
# Summary of the method: as §1
# [2] = target: GalNAc(b1-3)Gal(a1-4)Gal(b1-4)GlcNAc(b1-3)Gal(b1-4)Glc
# Summary of the method: as §1
# [3] = target: GalNAc(b1-3)Gal(a1-6)Gal(b1-4)Glc
# Summary of the method: as §1
# GalNAc(b1-3)GalNAc = target: GalNAc(b1-3)GalNAc
# Summary of the method: as §1
# GalNAc(b1-3)GlcNAc = target: GalNAc(b1-3)GlcNAc
# Summary of the method: as §1
# GalNAc(b1-4)Gal(b1-4)Glc = target: GalNAc(b1-4)Gal(b1-4)Glc
# Summary of the method: as §1
# GalNAc(b1-4)GlcNAc = target: GalNAc(b1-4)GlcNAc
# Summary of the method: as §1
# [4] = target: GalNAc(b1-4)GlcNAc(b1-2)Man
# Summary of the method: as §1
# [5] = target: GalNAc(b1-4)GlcNAc(b1-2)Man(a1-3)[GalNAc(b1-4)GlcNAc(b1-2)Man(a1-6)]Man(b1-4)GlcNAc(b1-4)GlcNAc
# Summary of the method: as §1
# [6] = target: GalNAc(b1-4)GlcNAc(b1-3)GalNAc(b1-4)GlcNAc
# Summary of the method: as §1
# GalNAc(b1-4)GlcNAc6S = target: GalNAc(b1-4)GlcNAc6S
# Summary of the method: as §1
# GalNAc(b1-6)GalNAc = target: GalNAc(b1-6)GalNAc
# Summary of the method: as §1
# GalNAc3S(b1-4)GlcNAc = target: GalNAc3S(b1-4)GlcNAc
# Summary of the method: as §1
# GalNAc3S(b1-4)GlcNAc3S = target: GalNAc3S(b1-4)GlcNAc3S
# Summary of the method: as §1
# [7] = target: GalNAc3S(b1-4)[Fuc(a1-3)]GlcNAc
# Summary of the method: as §1
# GalNAc4S6S(b1-4)GlcNAc = target: GalNAc4S6S(b1-4)GlcNAc
# Summary of the method: as §1
# GalNAc6S(b1-4)GlcNAc = target: GalNAc6S(b1-4)GlcNAc
# Summary of the method: as §1
# Glc(a1-4)Glc = target: Glc(a1-4)Glc
# Summary of the method: as §1
# [8] = target: Glc(a1-4)Glc(a1-4)Glc(a1-4)Glc
# Summary of the method: as §1
# Glc(a1-6)Glc(a1-6)Glc = target: Glc(a1-6)Glc(a1-6)Glc
# Summary of the method: as §1
# [9] = target: Glc(a1-6)Glc(a1-6)Glc(a1-6)Glc
# Summary of the method: as §1
# Glc(b1-4)Glc = target: Glc(b1-4)Glc
# Summary of the method: as §1
# Glc(b1-6)Glc = target: Glc(b1-6)Glc
# Summary of the method: as §1
# GlcA(b1-3)Gal = target: GlcA(b1-3)Gal
# Summary of the method: as §1
# GlcA(b1-3)GlcNAc = target: GlcA(b1-3)GlcNAc
# Summary of the method: as §1
# GlcA(b1-6)Gal = target: GlcA(b1-6)Gal
# Summary of the method: as §1
# [10] = target: GlcA3S(b1-3)Gal(b1-4)GlcNAc(b1-2)Man
# Summary of the method: as §1
# [11] = target: GlcA3S(b1-3)Gal(b1-4)GlcNAc(b1-3)Gal(b1-4)Glc
# Summary of the method: as §1
# [12] = target: GlcNAc(a1-3)Gal(b1-4)GlcNAc
# Summary of the method: as §1
# [13] = target: GlcNAc(a1-4)Gal(b1-3)GlcNAc
# Summary of the method: as §1
# [14] = target: GlcNAc(a1-4)Gal(b1-4)GalNAc
# Summary of the method: as §1
# [15] = target: GlcNAc(a1-4)Gal(b1-4)GlcNAc
# Summary of the method: as §1
# [16] = target: GlcNAc(a1-4)Gal(b1-4)GlcNAc(b1-3)Gal(b1-4)Glc
# Summary of the method: as §1
# [17] = target: GlcNAc(a1-4)Gal(b1-4)GlcNAc(b1-3)Gal(b1-4)GlcNAc
# Summary of the method: as §1
# [18] = target: GlcNAc(a1-4)Gal(b1-4)GlcNAc(b1-3)Gal(b1-4)GlcNAc(b1-3)Gal(b1-4)GlcNAc
# Summary of the method: as §1
# [19] = target: GlcNAc(a1-4)Gal(b1-4)GlcNAc(b1-3)Gal(b1-4)[Fuc(a1-3)]GlcNAc(b1-3)Gal(b1-4)[Fuc(a1-3)]GlcNAc
# Summary of the method: as §1
# [20] = target: GlcNAc(a1-6)Gal(b1-4)GlcNAc
# Summary of the method: as §1
binder,measurement,setting,value
B1,glycan array binding signal (z-score),GalNAc(b1-3)Gal,-0.238
same,glycan array binding signal (z-score),[1],-0.302
same,glycan array binding signal (z-score),[2],-0.31
same,glycan array binding signal (z-score),[3],0.013
same,glycan array binding signal (z-score),GalNAc(b1-3)GalNAc,-0.043
same,glycan array binding signal (z-score),GalNAc(b1-3)GlcNAc,-0.08
same,glycan array binding signal (z-score),GalNAc(b1-4)Gal(b1-4)Glc,0
same,glycan array binding signal (z-score),GalNAc(b1-4)GlcNAc,-0.179
same,glycan array binding signal (z-score),[4],-0.214
same,glycan array binding signal (z-score),[5],0.665
same,glycan array binding signal (z-score),[6],-0.044
same,glycan array binding signal (z-score),GalNAc(b1-4)GlcNAc6S,-0.104
same,glycan array binding signal (z-score),GalNAc(b1-6)GalNAc,-0.158
same,glycan array binding signal (z-score),GalNAc3S(b1-4)GlcNAc,-0.282
same,glycan array binding signal (z-score),GalNAc3S(b1-4)GlcNAc3S,-0.32
same,glycan array binding signal (z-score),[7],-0.216
same,glycan array binding signal (z-score),GalNAc4S6S(b1-4)GlcNAc,-0.407
same,glycan array binding signal (z-score),GalNAc6S(b1-4)GlcNAc,5.49
same,glycan array binding signal (z-score),Glc(a1-4)Glc,-0.167
same,glycan array binding signal (z-score),[8],-0.103
same,glycan array binding signal (z-score),Glc(a1-6)Glc(a1-6)Glc,-0.114
same,glycan array binding signal (z-score),[9],-0.043
same,glycan array binding signal (z-score),Glc(b1-4)Glc,-0.32
same,glycan array binding signal (z-score),Glc(b1-6)Glc,-0.626
same,glycan array binding signal (z-score),GlcA(b1-3)Gal,-0.464
same,glycan array binding signal (z-score),GlcA(b1-3)GlcNAc,-0.087
same,glycan array binding signal (z-score),GlcA(b1-6)Gal,0.092
same,glycan array binding signal (z-score),[10],-0.266
same,glycan array binding signal (z-score),[11],-0.082
same,glycan array binding signal (z-score),[12],-0.214
same,glycan array binding signal (z-score),[13],-0.275
same,glycan array binding signal (z-score),[14],-0.275
same,glycan array binding signal (z-score),[15],-0.191
same,glycan array binding signal (z-score),[16],-0.213
same,glycan array binding signal (z-score),[17],-0.449
same,glycan array binding signal (z-score),[18],-0.308
same,glycan array binding signal (z-score),[19],1.24
same,glycan array binding signal (z-score),[20],-0.052
